Source: PubChem BioAssay AID1963576 (National Center for Advancing Translational Sciences (NCATS), 2024)
Out of some 46,000 compounds screened, about 60 (0.1%) were called active. Roughly 3% stayed inconclusive and do not appear here. Calls follow the shape of the dose curve; as a rule, active = well fitted inhibition curve with a large enough effect; inconclusive = small, poorly fitted or top-dose-only effect; inactive = no such curve, though single readings can be large or run the other way. This is one part of the list.

experiment: Primary qHTS assay for Inhibitors of ovarian cancer metastasis using an organotypic tumor microenvironment (TME) model.; also: nearly all actives have a fitted effect of over 65% in size;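 as to activity change, negative = inhibition: plate controls were DMSO wells for no effect and tomatine positive control wells for full effect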; details: SKOV3ip1-GFP adhesion/invasion on 3D omental model, fluorescence; series mostly up to 45.8 µM; activity change, negative = inhibition: at the top concentration
Summary of the method: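 A 3D layer of primary human omental fibroblasts, mesothelial cells, fibronectin and collagen I, grown 48 hr, received SKOV3ip1-GFP cells in serum-free medium plus compounds at 0.36-46 umol/L. After 2 hr RT and 16 hr 37 C, fixed adherent GFP cells were counted; normalized to DMSO and tomatine.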

Row | SMILES | activity change, negative = inhibition | outcome
1 | O=C(Nc1nnc(S(=O)(=O)N2CCCc3ccccc32)s1)c1ccc(Cl)cc1 | inactive: 12.6% | 
2 | O=C(C1CCCCC1)N(Cc1cccnc1)c1nc2ccc(Cl)cc2s1 |  | inactive
3 | Cc1ccc(N2CCN(C(=O)c3cn(C)c4ccc(S(=O)(=O)N5CCC(C)CC5)cc4c3=O)CC2C)cc1 (stereo not given) |  | inactive
4 | Cc1c2cnn(-c3ccccc3)c(=O)c2c(C)n1CC(=O)Nc1ccccc1Br |  | inactive
5 | COc1ccccc1N1CCN(S(=O)(=O)c2ccc(-c3coc(C)n3)cc2)CC1 | inactive: -15.8% | 
6 | COc1ccc(C(=O)NCC(=O)OCc2cc(=O)n3nc(C4CCCCC4)sc3n2)cc1 |  | inactive
7 | Cc1ccccc1-c1nc(CS(=O)(=O)CC(=O)NCCCN2CCN(C)CC2)c(C)o1 |  | inactive
8 | COc1ccc(-n2nnc(-c3nc(-c4ccc5c(c4)OCO5)no3)c2C)cc1Cl | inactive: -28.3% | 
9 | COc1ccc(NC(=O)CSc2nncn3c2cc2occc23)c(OC)c1 | inactive: -3.58% | 
10 | Cc1ccc(SCCNC(=O)CN(c2cccc(C)c2C)S(C)(=O)=O)cc1 |  | inactive
11 | COc1cc(C(=O)Nc2ccc(-c3nc4cc(C)c(C)cc4o3)cc2)cc(OC)c1OC | inactive: -1.73% | 
12 | CC(C)Oc1ccc(C(=O)N2CCC(c3nc4ccccc4s3)CC2)cc1 | inactive: 0.807% | 
13 | CCOC(=O)c1ccc(NC(=O)CCc2c(C)nc3cc(-c4ccc(OC)cc4OC)nn3c2C)cc1 | inactive: 49.9% | 
14 | CCC(C)NC(=O)Cn1c(=O)n(-c2cc(OC)cc(OC)c2)c(=O)c2ccccc21 (stereo not given) | inactive: 8.41% | 
15 | CC(=O)Nc1ccc(S(=O)(=O)N2CCC(n3c(C)nc4cccnc43)CC2)cc1 |  | inactive
16 | CC1=C(C(=O)NCc2cccc(Cl)c2)C2(CCCCCC2)OC1=O | inactive: 7.77% | 
17 | CCOC(=O)c1c(C)oc2nc(C)nc(NCCc3ccc(OCC)cc3)c12 | inactive: -23.3% | 
18 | Cc1cc(=O)[nH]c2nnc(SCc3cccc(C(F)(F)F)c3)n12 | inactive: 3.78% | 
19 | O=C(CSc1nccn1Cc1ccco1)Nc1ccc(OC(F)(F)F)cc1 | inactive: -2.08% | 
20 | COc1ccc(C(=O)Nc2ccc(-c3nc4cc(C)ccc4o3)c(O)c2)cc1 | inactive: -8.96% | 
21 | CCN1CCC(N(Cc2ccc(F)cc2)C(=O)Nc2ccc(C)c(F)c2)CC1 | inactive: -19.1% | 
22 | CCOc1ccc(NC(=O)Cn2cc(C(=O)C3CC3)c3ccccc32)cc1 | inactive: 1.4% | 
23 | COc1ccc(NC(=O)CCCc2nnc3n(C(C)C)c(=O)c4sccc4n23)cc1Cl | inactive: 18.3% | 
24 | Cc1ccc2c(CNCCc3ccco3)c(C(=O)O)n(Cc3ccc(F)cc3)c2c1 |  | inactive

Row | SMILES | activity change, negative = inhibition | outcome
25 | CCOc1ccc(CN(CCc2ccc3c(c2)OCO3)Cc2cc(OC)cc(OC)c2)cc1 |  | inactive
26 | CCOc1ccc(NC(=O)Cn2c(=O)nc(-c3ccccc3)c3ccccc32)cc1 | inactive: 11.6% | 
27 | Cc1ccc(C)c(NC(=O)CSc2cn(CC(=O)N3CCCCC3)c3ccccc23)c1 | inactive: -7.6% | 
28 | COc1ccc(OC(=O)c2cc(-c3ccc4c(c3)OCCO4)on2)cc1 | inactive: -9.73% | 
29 | Cc1nc2ccc(S(=O)(=O)NCC(=O)NCc3ccc(Cl)cc3)cc2s1 | inactive: -12.9% | 
30 | COc1ccccc1N1CCN(c2ncc3c(n2)CCN(Cc2ccccc2C)C3)CC1 | inactive: 4.14% | 
31 | Cc1ccc(OCC(=O)OCc2cc(=O)n3ccsc3n2)cc1C | inactive: -5.09% | 
32 | Cc1nn(-c2ccccc2)c(-n2cccc2)c1C(=O)NCCCN1CCN(c2ccccc2F)CC1 | inactive: -3.28% | 
33 | COc1cc(Cl)c(NC(=O)CN2C(=O)c3cccnc3Sc3ccccc32)c(OC)c1 | inactive: 14.3% | 
34 | CC(C)c1ccc(NC(=O)Cn2nnc(C(=O)NCCc3ccccc3)c2N)cc1 | inactive: -10.2% | 
35 | Cc1cccc2nc(-c3ccc(Cl)s3)c(Nc3ccc4c(c3)OCCO4)n12 | inactive: -19.7% | 
36 | COc1ccc(NC(=O)C(Cc2ccccc2)NS(=O)(=O)c2ccc3c(c2)oc(=O)n3C)c(OC)c1 (stereo not given) | inactive: 3.45% | 
37 | Cc1nc(N2CCOCC2)c2c(C(=O)N3CCN(c4cccc(C(F)(F)F)c4)CC3)c(C)oc2n1 |  | inactive
38 | CCOc1ccc(-c2cc3nc(C4CCN(C(=O)OC(C)(C)C)CC4)c(C(=O)Nc4cccc(Cl)c4C)cn3n2)cc1 | inactive: 6.66% | 
39 | O=C1NC(NS(=O)(=O)c2ccccc2)(C(F)(F)F)C(=O)N1CCc1ccccc1 (stereo not given) | inactive: 30.8% | 
40 | Cn1cc(CCCC(=O)NCc2ccc(F)cc2)c2ccccc21 |  | inactive
41 | CCOC(=O)c1ccc(NC(=O)c2noc3c2CCCC3)cc1 | inactive: -2.96% | 
42 | CC1CCN(S(=O)(=O)c2ccc3[nH]ccc3c2)CC1 |  | inactive
43 | Brc1ccc(-c2cn3cc(Cc4ccccc4)sc3n2)cc1 | inactive: -2.6% | 
44 | COc1ccc(Cn2c(CNC(=O)Cc3ccc(OC)c(OC)c3)nc3cccnc32)cc1 | inactive: -7.95% | 
45 | O=S(=O)(NCCc1nnc2ccc(SCc3cccc(Cl)c3)nn12)c1ccccc1 | inactive: 15.6% | 
46 | Cc1cc(N2CCN(C)CC2)nc2ccc(NC(=O)Nc3ccc(F)cc3)cc12 |  | inactive
47 | CC(=O)N1CCCc2cc(S(=O)(=O)N3CCCC(C(=O)Nc4ccc(F)cc4F)C3)ccc21 (stereo not given) | inactive: 8.75% | 
48 | Cc1ccc2[nH]c3c(=O)n(CC(=O)N4CCN(c5ccccc5F)CC4)ncc3c2c1 | inactive: 7.8% | 

Row | SMILES | activity change, negative = inhibition | outcome
49 | CCN(c1ccccc1)c1ncnc2c1cnn2-c1ccc(OC)cc1 | inactive: 4.66% | 
50 | O=C(CCC(=O)N1CCOc2ccccc21)NCc1cccs1 | inactive: 0.974% | 
51 | COc1cccc(CC(=O)Nc2c(C(=O)N3CCN(c4ccccc4)CC3)oc3ccccc23)c1 |  | inactive
52 | Cc1ccc(Cn2c(SCc3ccc(C(=O)O)cc3)nc3cccnc32)cc1 |  | inactive
53 | O=C(NCC(c1ccco1)S(=O)(=O)c1ccc(Cl)cc1)c1ccc(C(F)(F)F)cc1 (stereo not given) | inactive: 5.19% | 
54 | COc1ccc(-c2cc(C(F)(F)F)c(C#N)c(SCC(=O)Nc3cccc(C)c3)n2)cc1 | inactive: 11.8% | 
55 | O=C(Cn1c(=O)n(Cc2ccco2)c(=O)c2sc3ccccc3c21)Nc1ccc(F)cc1F |  | inactive
56 | CSc1ncc(Cl)c(C(=O)Nc2c(C(=O)c3ccc(C)cc3)oc3ccccc23)n1 |  | inactive
57 | CCC(C)n1c(=O)c2sccc2n2c(CCCC(=O)Nc3ccc(F)cc3)nnc12 (stereo not given) | inactive: -0.486% | 
58 | CCN(CCCNC(=O)CN1N=C(c2ccccc2)CCC1=O)c1cccc(C)c1 | inactive: 6.16% | 
59 | CCOc1ccc(CCNC(=O)c2ccc3nc(N4CCC(C)CC4)sc3c2)cc1OCC |  | inactive
60 | O=c1[nH]c(=O)n(C2CCCO2)cc1F (stereo not given) | inactive: 3.72% [at 92.2 µM] | 
61 | CCOC(=O)CCc1c(C)c2cc3c(c(C)c2oc1=O)OCN(CCc1ccccc1OC)C3 | inactive: 3.8% | 
62 | COc1ccc(NC(=O)c2ccco2)cc1NC(=O)c1cccc(C)c1OC | inactive: 5.11% | 
63 | Cc1ccc(SCC(=O)Nc2ccc(O)c(-c3nc4cc(C)ccc4o3)c2)cc1 | inactive: -3.73% | 
64 | Cc1ccc(NC(=O)NC(C)c2c(-n3cccc3)sc(C)c2C)c(C)c1 (stereo not given) | inactive: -19.2% | 
65 | Cc1ccccc1-n1c(SCC(=O)c2ccccc2)nnc1-c1ccc(F)cc1 | inactive: -6.63% | 
66 | Cc1ccc(CNC(=O)CCCCCn2c(=O)c3sccc3n(CC(=O)C(C)(C)C)c2=O)cc1 | inactive: 2.11% | 
67 | Cc1ccc2c(CN3CCN(c4ccc(Cl)cc4)CC3)cc(=O)oc2c1 | inactive: -0.148% | 
68 | COc1ccc(Cn2c(CCC(=O)Nc3cc(C)cc(C)c3)nc3cccnc32)cc1 | inactive: -20.4% | 
69 | O=C(Nc1ccccc1)C1CCN(S(=O)(=O)c2ccc3c(c2)CCCN3C(=O)C2CCC2)CC1 | inactive: 14.2% | 
70 | Cc1ccc(NC(=O)CSc2nc(=O)n(Cc3ccncc3)c3c2CCC3)cc1Cl | inactive: -5.21% | 
71 | CCOc1cc(CNC(=O)CSc2n[nH]c(-c3ccccc3)n2)cc(OCC)c1OCC | inactive: -0.391% | 
72 | COC(=O)c1cc(NC2(c3ccccc3)C(=O)c3ccccc3C2=O)cc(C(=O)OC)c1 | inactive: -3.98% | 

Row | SMILES | activity change, negative = inhibition | outcome
73 | Cc1ccc(Cl)cc1N(C)C(=O)c1sc2nc3n(c(=O)c2c1C)CCCC3 | inactive: -1.53% | 
74 | COc1ccc(Nc2ncc(C(=O)Nc3cccc(OC)c3)c3ccccc23)cc1 | inactive: -13.3% | 
75 | Cn1c(=O)c2c(SCC(=O)Nc3ccc(F)cc3F)nc(C3CCCC3)nc2n(C)c1=O | inactive: 10.8% | 
76 | CCOC(=O)c1cnc(N2CCN(c3ccc(C)cc3C)CC2)c2ccccc12 |  | inactive
77 | COc1ccccc1NC(=O)CSc1oc(-c2ccc(F)cc2)nc1S(=O)(=O)c1ccc(Br)cc1 | inactive: -4.97% | 
78 | CC(C)(C)c1ccccc1NC(=O)c1cnn2c(C(F)F)cc(-c3ccccc3)nc12 |  | inactive
79 | Cc1ccccc1CNC(=O)c1ccc2[nH]c(C)c(C)c2c1 | inactive: -8.35% | 
80 | C[C@]12CC[C@@H]3c4ccc(O)cc4C[C@@H](CCCCCCCCCS(=O)CCCC(F)(F)C(F)(F)F)[C@H]3[C@H]1CC[C@H]2O (stereo not given in full) | inactive: -17.6% | 
81 | Cc1ccc(C)c(NC(=O)Cn2ccn(-c3ccc(F)cc3)c(=O)c2=O)c1 | inactive: -4.06% | 
82 | CSc1cccc(NC(=O)CN2C(=O)COc3ccc(S(=O)(=O)N4CCC(C)CC4)cc32)c1 | inactive: -2.63% | 
83 | Cc1cc(C)cc(Nc2cc(C)nc3nc(-c4ccco4)nn23)c1 | inactive: 6.09% | 
84 | Cc1ccc(-c2nc3c4ccccc4n(CC(=O)N4CCN(c5ccc(F)cc5)CC4)c(=O)n3n2)cc1 | inactive: 6.46% | 
85 | CCOC(=O)c1c(NC(=O)c2cc(-c3ccc(Cl)cc3)on2)sc(C)c1C | inactive: 5.96% | 
86 | CCC(C)NC(=O)Cn1c(-c2cccs2)cc2cc(Cl)ccc21 (stereo not given) | inactive: -0.367% | 
87 | Cc1ccc(CN(C(=O)c2ccccc2[N+](=O)[O-])c2ccccn2)cc1 | inactive: 1.52% | 
88 | Cc1cc(N2CCC(C(=O)NCCC(C)C)CC2)n2nc(C)c(-c3ccc(Cl)cc3)c2n1 |  | inactive
89 | O=S(=O)(NCCc1csc2nc(-c3ccc(F)cc3)nn12)c1ccc(Oc2ccccc2)cc1 | inactive: -0.151% | 
90 | CCOc1ccc(CCNC(=O)c2ccc3c(c2)sc2nc(-c4ccc(F)cc4)cn23)cc1OCC | inactive: -0.293% | 
91 | Cc1cc(C)cc(N2C(=O)CCSC23C(=O)N(Cc2ccccc2)c2ccccc23)c1 (stereo not given) | inactive: 28.8% | 
92 | COc1ccc(-c2nc(-c3ccccc3)c(-c3ccc(F)cc3)[nH]2)c(OC)c1C | inactive: -11.6% | 
93 | CC(C)(C)NC(=O)c1ccc2nc(CCc3ccccc3)oc2c1 | inactive: 2.75% | 
94 | CCOC(=O)c1[nH]c(C)c(CCC(=O)Nc2ccc(Br)c(C)c2)c1C | inactive: 2.54% | 
95 | COc1cc(C(=O)Nc2nonc2-c2ccc(Cl)cc2)cc(OC)c1OC | inactive: 3.11% | 
